From article PMC12040169 (PLOS Biology, 2025)
The other results are listed elsewhere or left out.

test system: T1, C. trachomatis L2/434/Bu expressing GFP (CTL2-GFP); design: species or system HeLa; C. trachomatis total inclusion area by high-content imaging, normalised to DMSO; conditions: total inclusion area; 28.5 h, 10 µM; inhibitor
T1 construct: L2/434/Bu GFP intracellular growth in HeLa cells
How it was run: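 Host cell viability was gauged from Hoechst-stained nuclei counts, while chlamydial growth was taken from total inclusion area and inclusion number per well. Cells were fixed and imaged by high-content microscopy once bulk GFP and resorufin fluorescence had been measured.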

Row | SMILES | % of control remaining
1 | O=C1NCC2(C/C=C/CCOc3ccccc31)CCNCC2 [CBK292178] | 106.958
2 | O=C(CCn1c(=O)oc2ccccc21)Nc1ccncc1 [CBK287466] | 85.4187
3 | O=C(NCc1nnc(-c2cccs2)o1)c1cccc2ccccc12 [CBK284636] | 79.815
4 | Nc1nnnn1CC(=O)N/N=C/c1cc2c(cc1[N+](=O)[O-])OCO2 [CBK262187] | 98.0575
5 | Clc1ccc(C2(N3CCC(N4CCOCC4)CC3)CC2)cc1 [CBK282722] | 108.132
6 | COc1ccc(CNC(=O)CN2CCCCC2Cn2cccn2)cc1 (stereo not drawn) [CBK305379] | 86.2326
7 | COc1ccc(NC(=O)CSc2nc(O)cc(=O)[nH]2)cc1 [CBK261747] | 90.8324
8 | O=C(NCc1nnc(-c2cccs2)o1)C(c1ccccc1)c1ccccc1 [CBK286294] | 91.3179
9 | CN(C)CC(C)(C)CNC(=O)c1ccccc1-n1cccc1 [CBK149600] | 105.725
10 | CCn1cc(C(=O)O)c(=O)c2cc(F)c(N3CCN(S(=O)(=O)c4ccc(C)cc4)CC3)cc21 [CBK265122] | 134.634
11 | Cc1ccc(C2(C(=O)NC(C)c3ccccn3)CCOCC2)cc1 (stereo not drawn) [CBK281903] | 71.9554
12 | O=C(O)c1cc(C=Cc2cn(Cc3ccccc3)nc2-c2cccnc2)nc2ccccc12 [CBK296988] | 111.747
13 | COc1cc(CNc2cc(-c3ccco3)ncn2)cc(OC)c1OC [CBK091181] | 107.084
14 | CN(C)Cc1nc(C(=O)N2CCn3nc(C(O)C4CC4)cc3C2)cs1 (stereo not drawn) [CBK307489] | 95.1213
15 | Nc1ccccc1Sc1nc2ccccc2nc1C(F)(F)F [CBK093776] | 121.492
16 | O=S(=O)(c1cccs1)n1ccc2c(CN3CCCC3)cccc21 [CBK116195T] | 83.924
17 | COCC(=O)NC(Cc1ccsc1)c1nc(C)c(C)s1 (stereo not drawn) [CBK284773] | 117.195
18 | O=C(O)COc1ccc(S(=O)(=O)N2CCc3ccccc32)cc1 [CBK269882] | 63.4893
19 | CC(=O)NCc1ccc(-c2ccc(C(=O)NCc3ccc4[nH]c(C)c(C)c4c3)c(C)n2)cc1 [CBK285888] | 140.571
20 | Cc1cc(=O)c2ccccc2n1CC(=O)N1CCOC2(CCCC2)C1 [CBK306811] | 44.0097
21 | O=C1CC(c2ccc(C(=O)O)cc2)c2c(-c3ccc(Cl)cc3)n[nH]c2N1 (stereo not drawn) [CBK286684] | 73.7005
22 | CC(=O)Nc1ccc(CNC(=O)CN(C)Cc2cccc(O)c2)cc1 [CBK307660] | 75.5764
23 | CSCCC(C(=O)O)N1C(=O)C(=Cc2ccc(-c3cccc(Cl)c3)o2)SC1=S (stereo not drawn) [CBK296982] | 117.943
24 | OCCN(Cc1ccccc1)Cc1ccc(-c2ccccc2)cc1 [CBK261883] | 98.6461
25 | FC(F)(F)c1ccnc(Sc2cccc(Cl)c2)c1 [CBK115234] | 98.1106
26 | COCCN(C)c1ccc(C(=O)N2CCC(N3CCOCC3)CC2)cn1 [CBK306851] | 81.2389

Row | SMILES | % of control remaining
27 | CC1(C)[C@H](Cc2cc(CC3CCCCC3)on2)C[C@@H]1NC(=O)N1CCOCC1 [CBK289258] | 92.4128
28 | CC(C)(C)CC(C)(C)NC(=S)Nc1ccc2nc(-c3ccccn3)c(-c3ccccn3)nc2c1 [CBK265118] | 34.8271
29 | COc1ccc(C(=O)N2CCC3(CCCN(C(=O)c4ccc5ncccc5c4)C3)C2)cc1OC (stereo not drawn) [CBK131656] | 96.8515
30 | Cc1nc(C(F)(F)F)ccc1C(=O)Nc1nc(CC(N)=O)cs1 [CBK305776] | 80.3818
31 | Clc1ccc(CN2CCCN(c3nccc(OCC4COc5ccccc5O4)n3)CC2)cc1Cl (stereo not drawn) [CBK083967] | 65.1325
32 | Cc1ccccc1OCC(O)CN1CCCC(C(F)(F)F)C1 (stereo not drawn) [CBK304873] | 71.4627
33 | Nc1ccccc1CC(c1c[nH]c2ccccc12)c1c[nH]c2ccccc12 [CBK261780] | 76.8285
34 | COc1ccc(N(CC(=O)Nc2cccnc2)S(=O)(=O)c2ccccc2)cc1 [CBK262236] | 65.4175
35 | O=S1(=O)N=C(c2cccs2)C=C(C(F)(F)F)N1 [CBK019309] | 56.0268
36 | O=[N+]([O-])c1ccc(N2CCN(Cc3c(O)ccc4ccccc34)CC2)cc1NCc1ccccc1 [CBK268408] | 76.5401
37 | O=C(Nc1ccncc1)c1ccc(CNS(=O)(=O)c2cccc(C(F)(F)F)c2)cc1 [CBK267181] | 112.56
38 | CCNC(=O)N1C[C@@H]2OCC(=O)N(Cc3cccnc3)[C@@H]2C1 [CBK289682] | 108.477
39 | NS(=O)(=O)c1ccc(CNC2CC(=O)N(CCc3ccccc3)C2=O)cc1 (stereo not drawn) [CBK262464] | 94.3745
40 | CCOC(=O)C1=C(c2ccccc2)Nc2ncnn2C1c1cccc(OC)c1OC (stereo not drawn) [CBK266353] | 118.997
41 | COc1ccc(NC(=O)c2ccc(N3CCN(Cc4ccccc4)CC3)c([N+](=O)[O-])c2)cc1 [CBK263260] | 81.2825
42 | Cc1c(F)cccc1CN1CCCN(S(=O)(=O)c2ccc(-c3ccccc3)cc2)CC1 [CBK062977] | 89.3141
43 | O=C(c1ccc(Cl)cc1)N1CCN(C(=O)c2cc(O)nc3ccccc23)CC1 [CBK296666] | 78.4338
44 | O=C(Cc1nc2ccccc2[nH]1)N1CCOCC1 [CBK019505] | 109.347
45 | CN(C(=O)c1cccnc1)C(CC1CCCCC1)C1CCCCC1 (stereo not drawn) [CBK015849] | 88.3764
46 | Cc1ccc(OCc2nnc(SCc3cccc(C#N)c3)n2Cc2ccccc2)cc1C [CBK266065] | 125.405
47 | CC(OC(=O)Cc1ccccc1[N+](=O)[O-])c1nnnn1-c1ccccc1 (stereo not drawn) [CBK297920] | 86.3547
48 | CN(Cc1ccc(Br)cc1)C(=O)CNS(=O)(=O)c1cnn(C)c1 [CBK304553] | 66.4167
49 | Cc1ccc(C(=O)NNCc2ccccc2)c(NCc2cccnc2)n1 [CBK076369] | 103.525
50 | CN(CCc1ccccn1)C(=O)C1CN(C(=O)C2CC23CCC3)C1 (stereo not drawn) [CBK281969] | 61.1372
51 | Cc1cc(=O)oc2cc(NC(=S)NNC(=O)C(C)Oc3ccc4c(c3)CCC4)ccc12 (stereo not drawn) [CBK267031] | 122.805
52 | COC(=O)CC1CCC(NC(=O)C(F)(F)F)CC1 (stereo not drawn) [CBK009129] | 35.9881

Row | SMILES | % of control remaining
53 | Cc1ccc(C(=O)O)cc1NC(=O)CSc1nc2scc(C3CC3)c2c(=O)n1-c1ccccc1 [CBK297481] | 102.23
54 | Cc1ccc(C2CCCN2C(=O)Cn2cc(C(=O)NCc3ccccc3)ccc2=O)cc1C (stereo not drawn) [CBK286051] | 119.322
55 | CSc1nnc(CCCNc2cccc(C#N)n2)n1CC(C)C [CBK306449] | 74.9988
56 | O=C(Cc1ccccc1)N1CCN(S(=O)(=O)N2CCOCC2)CC1 [CBK268857] | 116.67
57 | COc1ccc(/C=C2\SC(Nc3ccc(Cl)c(C(=O)O)c3)=NC2=O)cc1C [CBK067743] | 94.2384
58 | COc1ccc(C(=O)COC(=O)c2cccc(N3C(=O)C4C5C=C(C)C(C5)C4C3=O)c2)cc1 (stereo not drawn) [CBK264808] | 110.113
59 | Cc1c(C(=O)NCC[S+](C)[O-])oc2c(C)cccc12 (stereo not drawn) [CBK282511] | 102.763
60 | CS(=O)(=O)NC1CCCN(c2nc(-c3ccsc3)nc3ccccc23)C1 (stereo not drawn) [CBK305623] | 74.7694
61 | CCOC(=O)c1c(NC(=O)CN2CC(C)OC(C)C2)sc2c1CCC(C)C2 (stereo not drawn) [CBK264572] | 100.016
62 | COc1ccc(NC(=O)c2c[nH]c3nc(C)ccc3c2=O)cc1 [CBK287816] | 114.757
63 | CC(=O)N1CCc2nc(C)nc(NCCn3cccc3)c2CC1 [CBK307130] | 84.1233
64 | Cn1c(=O)[nH]c(=O)c2cnc(-c3ccc(Cl)cc3)nc21 [CBK291208] | 53.4256
65 | COc1cc(NC(=O)c2nn3c(c2Br)NC(c2cccs2)CC3C(F)(F)F)c(OC)cc1Cl (stereo not drawn) [CBK263573] | 121.473
66 | CSc1[nH]nc(-c2ccc(C(C)(C)C)cc2)c1C#N [CBK016999] | 17.3232
67 | CC(C)CC(=O)N1CCN(Cc2nc3sc4c(c3c(=O)[nH]2)CCC4)CC1 [CBK305014] | 54.3676
68 | CCn1nc(C)c(-c2cncn2CCCC(C)(C)CO)c1C [CBK281807] | 89.5256
69 | c1ccc(C(Oc2nccnc2-c2ccsc2)c2ccccc2)cc1 [CBK106765] | 109.056
70 | COc1ccc(Cn2c(=O)n(S(=O)(=O)c3cccc(-c4nnc(C)o4)c3)c3ccccc32)cc1 [CBK106558] | 97.6894
71 | O=C1NC(=O)C(CCCCN2CCCC3(CCN(C(=O)c4cc(F)c(F)cc4F)C3)C2)N1 (stereo not drawn) [CBK132020] | 102.609
72 | c1coc(CNc2ncc(-c3ccc4c(c3)OCO4)c(-c3cccs3)n2)c1 [CBK286414] | 91.9534
73 | CCC(c1ccc(F)cc1)n1cncc1-c1cnn(C)c1 (stereo not drawn) [CBK281883] | 76.5174
74 | Cc1cc(C)c2c(CC(=O)N(C)CCN(C)C)coc2c1 [CBK282174] | 96.7998
75 | O=C(NCc1ccncc1)c1ccc(-n2ccnc2)c(-n2cccc2)c1 [CBK285367] | 96.4915
76 | CC1=NN(C(=O)c2c(Cl)c(C)nn2C)C(O)(C(F)(F)F)C1 (stereo not drawn) [CBK058892] | 103.365
77 | Cc1cc(-c2cnc(N)nc2)cc(C2CCCN(C(=O)COc3c(C)cccc3C)C2)n1 (stereo not drawn) [CBK285933] | 95.6122
78 | c1cncc(OCCN2CCN(c3nccnc3OCCN3CCOCC3)CC2)c1 [CBK082914] | 96.0267
